US8791092B2 (priority 2009, dated 2014)

Target: Aβ42 (Homo sapiens, UniProt P05067)
Test: Aβ42 aggregation measured by dynamic light scattering (DLS)
Format: biochemical
Set-up: C) 30 μM Aβ42
Settings: 1:1 concentration ratio

O=P(O)(O)Oc1c2c(c(OP(=O)(O)O)c3c1C1C[C@H]3c3cc4c(cc31)C1C[C@H]4c3ccccc31)[C@@H]1CC2c2cc3c(cc21)[C@@H]1CC3c2ccccc21 [TW1]
abundance of Aβ42 fraction of RH=20-60 nm particles versus absence of tweezers (DLS): about twice as abundant
